In all, about 310,000 compounds went through this assay and about 11,000 (3.5%) were called active. This list was built around the results that the source calls inconclusive (neither active nor inactive); the mix of calls is not that of the screen. Calls come from the whole dose curve; as a rule, active = well fitted inhibition curve with a large enough effect; inconclusive = small, poorly fitted or top-dose-only effect, or effect the other way; inactive = flat fitted curve, though single readings scatter. Potencies of inconclusive entries are left out as doubtful fits.
experiment: VP16 counterscreen qHTS for inhibitors of ROR gamma transcriptional activity; conditions: Drosophila S2 Gal4-VP16 UAS-luciferase, luminescence, 20 h; series mostly up to 53.6 µM; activity, negative = inhibition: at the top concentration;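 note: Gal4-VP16 expression switched on by copper sulfate through the metallothionein promoter; nearly all actives have a fitted effect of over 50% in size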
% is set by controls: 0 for no effect and ±100 for the full control effect; potency is the fitted concentration of half-maximal effect; tags give direction and shape of the fitted curve.

| Structure (SMILES) | Potency | activity, negative = inhibition |
| --- | --- | --- |
| CCOC(=O)c1c(-n2c(C)cc(C=C3C(=O)NC(=S)NC3=O)c2C)sc2c1CCCC2 | inconclusive [inhibitor, single point] |  |
| COc1ccccc1-n1c(/C=C/c2ccccn2)nc2ccccc2c1=O | inconclusive [activator, single point] |  |
| COc1ccc(Cn2c(O)c(/C=N/NC(=O)c3ccccc3)c(=O)[nH]c2=O)cc1 | inconclusive [inhibitor, single point] |  |
| CC(CO)NC(=O)C1C=C2c3cccc4[nH]cc(c34)C[C@H]2N(C)C1 (stereo partly drawn) | inconclusive [inhibitor, single point] |  |
| CC1CCC(C)(NS(=O)(=O)OCC(Cl)(Cl)Cl)CC1 (stereo not drawn) | inconclusive [inhibitor, partial curve, poor fit] |  |
| O=C(Nc1ccc(Cl)c(C(F)(F)F)c1)NC1CC2CCCC(C1)N2Cc1ccccc1 (stereo not drawn) | inconclusive [inhibitor, single point] |  |
| O=C(C[N+]12CCC(CC1)C(C(O)(c1ccccc1)c1ccccc1)C2)c1ccc(Br)cc1 (stereo not drawn) |  | inactive: -6.29% |
| Cc1ncc(CC(=O)n2cc(C(=O)c3cc(Cl)ccc3O)cn2)s1 | inconclusive [inhibitor, single point] |  |
| Oc1cc(Cl)c(Cl)c(Cl)c1Cl | inconclusive [inhibitor, single point] |  |
| CCCCn1c(=O)c(C(=O)Nc2ccccc2F)c(O)c2ccccc21 | inconclusive [inhibitor, single point] |  |
| COc1ccc(CCNc2oc(-c3ccc(OC)c(OC)c3)nc2P(=O)(OC)OC)cc1OC | inconclusive [inhibitor, partial curve] |  |
| CC[C@]1(O)CC(O[C@@H]2CC(N(C)C)C(O)C(C)O2)c2c(cc3c(c2O)C(=O)c2c(O)cccc2C3=O)C1C(=O)OC (stereo partly drawn) | active: 4.47 µM |  |
| CCCCC(=O)N/N=C/c1c(O)n(CC)c(=S)n(CC)c1=O | active: 3.16 µM |  |
| C=CCOC(=O)C1=C(C)OC(N)=C(C(=O)OCC)C12C(=O)N(CC(N)=O)c1ccccc12 (stereo not drawn) | inconclusive [inhibitor, single point] |  |
| Cc1oc2ccc(OC(=O)N(C)C)cc2c1C(=O)OC(C)C |  | inactive: -8.24% [at 0.365 µM] |
| CCOC(=O)c1c(NC(=O)c2c(N)n(CCCOC)c3nc4ccccc4nc23)sc2c1CCCC2 | inconclusive [inhibitor, single point] |  |
| Cc1ccc(C(=O)Nc2nc3ccccc3[nH]2)cc1 | active: 3.55 µM |  |
| C[n+]1c2cc(N)ccc2cc2ccc(N)cc21 | active: 7.08 µM |  |
| CCCCCOc1ccc(C)cc1CN(CCCl)CCCl | inconclusive [inhibitor, single point] |  |
| O=C(O)c1cc(Oc2ccc(C(F)(F)F)cc2Cl)ccc1[N+](=O)[O-] |  | inactive: -0.0111% |
| Cc1ccc2nc(N3CCC(C(=O)N4CCC5(CC4)OCCO5)CC3)sc2c1 |  | inactive: 15% |
| Cc1nn(Cc2ccccc2Cl)c(Cl)c1C(=O)O |  | inactive: -0.296% |

| Structure (SMILES) | Potency | activity, negative = inhibition |
| --- | --- | --- |
| Cc1nn(Cc2ccccc2)c(C)c1C=C1C(=O)NC(=O)NC1=O |  | inactive: -10.5% |
| CCNC(=O)CCSc1nc2cc(Cl)ccc2o1 | inconclusive [activator, single point] |  |
| Cc1cc(I)ccc1Nc1c(C(=O)NOCC2CC2)cc(F)c(F)c1F | inconclusive [inhibitor, single point] |  |
| Cc1cc(C)cc(N2C(=O)NC(=O)/C(=C\c3cccn3-c3ccccc3)C2=O)c1 | inconclusive [inhibitor, single point] |  |
| CCOCCSc1nc2c(c(-c3cccs3)c1C#N)CC/C2=C/c1cccs1 | inconclusive [inhibitor, single point] |  |
| O=C(COc1ccc2ccccc2c1)N1CCN(CC2CC3C=CC2C3)CC1 (stereo not drawn) |  | inactive: -9.28% |
| CCC(=NCCOc1ccc(Cl)cc1)c1c(O)n(C)c(=O)n(C)c1=O | inconclusive [inhibitor, single point] |  |
| C[C@@H]1C[C@H]2CC[C@H](O2)[C@H](C)C(=O)O[C@@H](C)C[C@@H]2CC[C@@H](O2)[C@@H](C)C(=O)O[C@H](C)C[C@H]2CC[C@H](O2)[C@H](C)C(=O)O[C@@H](C)C[C@@H]2CC[C@@H](O2)[C@@H](C)C(=O)O1 | active: 1 µM |  |
| O=Cc1cn(Cc2ccc(F)cc2Cl)c2ccccc12 | inconclusive [inhibitor, single point] |  |
| Cc1ccc(N2C(=O)NC(=O)/C(=C\C=C\c3ccco3)C2=O)cc1C | active: 7.08 µM |  |
| CC(C)CCCn1c(O)c(/C=C2/C=CC=N2)c(=O)[nH]c1=O |  | inactive: 1.57% |
| O=C1c2ccccc2C(=O)N1SC1CCCCC1 | inconclusive [inhibitor, single point] |  |
| O=C(CSc1ncnc2c1nnn2-c1ccc(F)cc1)NCC1CCCO1 (stereo not drawn) | inconclusive [inhibitor, single point] |  |
| CCC1(CC)C(=O)NC(=Nc2cccc(C(F)(F)F)c2)NC1=O | inconclusive [inhibitor, single point] |  |
| C[C@@H]1O[C@H](O[C@@H]2C=C3CC[C@H]4[C@@H](CC[C@]5(C)[C@@H](c6ccc(=O)oc6)CC[C@]45O)[C@@]3(C)CC2)[C@@H](O)[C@H](O)[C@@H]1O |  | inactive: -7.29% [at 17 µM] |
| Cc1ccccc1N1C(=O)NC(=O)/C(=C\c2cnn(-c3ccccc3)c2)C1=O | inconclusive [inhibitor, single point] |  |
| Cc1nc2ccccc2c(=O)n1-c1cccc(O)c1 |  | inactive: 12.9% |
| O=C1NC(=O)C(=Cc2ccc(Sc3ccccc3)o2)C(=O)N1 | inconclusive [inhibitor, single point] |  |
| C[C@]12CC[C@@H]3[C@@H](CCC4=CC(=O)CC[C@@H]43)[C@@H]1CC[C@@H]2OC(=O)CCc1ccccc1 |  | inactive: -13.7% |
| CCCCC(=O)N/N=C/c1c(O)n(CC)c(=S)[nH]c1=O | inconclusive [inhibitor, partial curve] |  |
| C[C@]12C=CC(=O)C=C1C=C[C@@H]1C2CC[C@]2(C)C(=O)CCC12 (stereo partly drawn) | inconclusive [activator, single point] |  |

Source: PubChem BioAssay AID2546 (National Center for Advancing Translational Sciences (NCATS), 2010)
